± gives the standard deviation of the averaged measurements. The list shows a part of the results.
These sequences were tested on PfAP2-EXP AP2 domain (GST-tagged) (assay: gcPBM binding intensity (ln(normalized median fluorescence intensity)); higher = stronger DNA binding).
Method in brief: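 An Agilent 4 × 180k array carrying primer-extended double-stranded 36-bp intergenic genomic probes and negative controls received GST-tagged P. falciparum DNA-binding domains expressed in E. coli, about 25 μg on average, for 1 h. The binding buffer contained 1× PBS, 1% milk, 0.2 mg/ml BSA, 0.5% salmon testes DNA and 0.03% Triton X-100. Binding intensity is the top Masliner-normalised natural-log median intensity across replicate spots of either probe orientation, read after Alexa488 anti-GST antibody staining and a 488 nm scan.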

| Sequence | gcPBM binding intensity (ln) |
| --- | --- |
| ATAACCACATAAAATATAATTATATATATATATATA [CACACA_negctrl_site603] | 10.1 ± 0.31 |
| CCTGAAATTTTATTATGTACATATTATAAAATGATT [XGTACX_site1434] | 8.51 ± 0.3 |
| TGGCACTAAAAAAATAAACACACAGATTTATATAAT [CACACA_site8386] | 8.57 ± 0.47 |
| ATTCCTCCCATGGAATGTACTCATCAAATAAATAAA [XGTACX_site6543] | 8.39 ± 0.42 |
| AATGTATTATGTAATAGTACGTATAATATCTTATTT [XGTACX_site3] | 8.3 ± 0.3 |
| ATACATATCTATAATACACACATAAATGTAACATTT [CACACA_site7621] | 8.74 ± 0.33 |
| TTCTACGTTTTAAAAAAAAAAAAAAAAAAAAAAAAA [XGTACX_negctrl_site6] | 7.9 ± 0.37 |
| TGAAGATAAAAATATGCACACATATATATATATATA [CACACA_site8027] | 10.1 ± 0.31 |
| CATAAAAATGAACATACACACATATATTTATTTATA [CACACA_site7222] | 8.27 ± 0.59 |
| ATTATATATATTGGAGTGCATATATAGTATTTTATA | 8.52 ± 0.099 |
| ACATATTATAGGAATACACACAAAAACTTATCGGTA [CACACA_site7587] | 8.65 ± 0.48 |
| ATAGAAATCTATTGTGATTATTATTTTATTTTTAGT [XGTACX_negctrl_site605] | 8.15 ± 0.28 |
| TTTTACTCTTAAAATAATAAAAAATATTCACATTTA [CACACA_negctrl_site1508] | 7.84 ± 0.38 |
| AAAAAGAATATAAGTAGTACAGTGCATATAATAATT [XGTACX_site617] | 9.15 ± 0.11 |
| TATATATACATATACGCATGTAAATTCAAAAGTAAA [TGCATGCA_site956] | 8.64 ± 0.45 |
| AAGAGAAATGGGCACACACACACATATTATATATAT [CACACA_site1531] | 8.88 ± 0.28 |
| AATTAATGTTTTGTCACACAGTATGATTATATATAT [CACACA_site6143] | 8.64 ± 0.35 |
| TATAATTTTTTTAATACACACAAATATTTATATATA [CACACA_site3042] | 8.23 ± 0.29 |
| TTAGTATATTTTTCCTGTACGTACTCAGATACAAAT [XGTACX_site7397] | 8.63 |

| Sequence | gcPBM binding intensity (ln) |
| --- | --- |
| TACACATTATGTATCATACACACAAATAAATATATA [CACACA_site608] | 8.44 ± 0.42 |
| TTAAATAATTTTTAATGTACATTAAATTTATTATTA [XGTACX_site261] | 8.23 ± 0.23 |
| TTGATATAAAAAGAAAGTACTTTATAGATGTTTATT [XGTACX_site8144] | 8.46 ± 0.4 |
| TATAAAAATATATATATATATATATATATATATATA [TGCATGCA_negctrl_site541] | 9.99 ± 0.42 |
| AATAATAACAAATGAACACACATATATATGAGCAAA [CACACA_site2121] | 8.82 ± 0.55 |
| TGTATAACCTGTGTTACACACATTAGAATTTATATA [CACACA_site6393] | 8.15 ± 0.31 |
| TTCTCCATCAGATACTGTACATAATATATATAATAT [XGTACX_site8827] | 8.82 ± 0.33 |
| TATATAAAGATATATACACACAAAAAAAAAAAAAAA [CACACA_site6778] | 8.35 ± 0.47 |
| TACATAAACTTTATAACACACACTTATATATATATA [CACACA_site1106] | 9.86 ± 0.18 |
| GCATCATTTATTTGCACACCTATTATATACTTTTTA [CACACA_site2098] | 8.86 ± 0.19 |
| AATAAGTGTTGATTCTTAAAATGACCATATAATAAT [TGCATGCA_negctrl_site221] | 8.61 ± 0.46 |
| TCATATTTACAAAAAGGTATTAATAAATAAAATATT [CACACA_negctrl_site259] | 8.38 ± 0.4 |
| ATATTAGGGTCATGAACACACAAAAAAAAAAAAAAA [CACACA_site937] | 8.32 ± 0.71 |
| TATCTTTTATAAGTGACACACATAAATATTTAAATT [CACACA_site833] | 8.51 ± 0.48 |
| GCTATCATATCATGTTGTACACAACCTCAAAATGAA [XGTACX_site8757] | 8.74 ± 0.3 |
| TTTAATTCTTATATTTGTACAGATTCATAATTAAAT [XGTACX_site7465] | 8.41 ± 0.37 |
| CGTTTATTAAACTTGACACACACACCCCCACATATA [CACACA_site8151] | 9.69 ± 0.31 |
| TATATATATATATATGCATGCCATATGATATATATA [TGCATGCA_site109] | 10.3 ± 0.27 |
| AATCGATAACAATGTAGTACCAGAAAAATAAATATT [XGTACX_site8501] | 8.99 ± 0.3 |

| Sequence | gcPBM binding intensity (ln) |
| --- | --- |
| ACATATCGGGTGCATTAACACACATTTATTTGAATA [CACACA_site8736] | 9.19 ± 0.86 |
| ATTATATCACTGTGTTGTACTTCTTATATAAAAATA [XGTACX_site2333] | 8.91 ± 0.43 |
| TCCGTATAATTTTGCACACGAATATAAATTTGATAA [CACACA_site136] | 8.94 ± 0.26 |
| ATAAAAATAAAATGGACACACATATATACATATTTG [CACACA_site3277] | 8.4 ± 0.37 |
| AATTATAATAAATAACGTACAAAAAATAAATTATTT [XGTACX_site3627] | 8.55 ± 0.35 |
| TTTTTTTTTGATATTTGTACTTAAGTAAATATTATA [XGTACX_site3843] | 8.51 ± 0.27 |
| TATATATTCATGTGTACACACAAAAAAAAATAAAGT [CACACA_site2207] | 8.96 ± 0.35 |
| ATAAGCGAATATATATCACACACAAAAAAATCAGAC [CACACA_site8657] | 9.26 ± 0.36 |
| ATATTACACAGATATGCACACATTGTAGTTATTTAT [CACACA_site5454] | 8.61 ± 0.3 |
| AAAAAGGAAATTTACACACACATATAACATACATTA [CACACA_site7534] | 8.62 ± 0.52 |
| TTTTTTTTCTAAATTATATGAAAATATATGTTATGT [GTGCAC_negctrl_site85] | 8.12 ± 0.38 |
| ATTTTCTATTTTATTTGTACGTAATTTAATTTTTTT [XGTACX_site3609] | 8.96 ± 0.56 |
| ACAATTTTAAAATGAACACACATGTTTTTCTTACTT [CACACA_site1014] | 8.68 ± 0.5 |
| TACATAAACATTTATACACACATTATAAATACATAT [CACACA_site4386] | 8.53 ± 0.45 |
| ATAAATCCATGTAACTGTACTTTTTTTTTTTTTTTT [XGTACX_site7373] | 8.82 ± 0.028 |
| ATAAAGATTAATAAAATAAAATTCCGCAAACATATA [CACACA_negctrl_site244] | 8.5 ± 0.47 |
| TTTTGAAATTTTTGTGTTTTTCCTTTTTATTTTATA [CACACA_negctrl_site1740] | 8.48 ± 0.49 |
| TCCCAATTTCTATCCTGTACAGACATAAATATATAC [XGTACX_site5937] | 9.06 ± 0.53 |

Source: the supplement of paper PMC11417369
